± gives the standard error. Variants at the floor of the assay are shown more often than the library holds them.
B1: glmS ribozyme (parent)
chain: AUAAAAGCGCCAGAACUACAGAAAUGUAGUUGACGAGGAGGAGGUUUAUCGAAUUUUCGGCGGAUGCCUCCAAA

How the values were obtained:
Conditions in all cases: with glucosamine-6-phosphate
[1] = variants of: B1; assay: self-cleavage kobs at 640 uM GlcN6P; higher = faster cleavage; RNA array
In short: (§1)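 In situ transcription by E. coli RNA polymerase produced barcoded ribozyme variants on sequenced MiSeq chips, and a hybridised Cy3 probe tracked them at 37 °C. Glucosamine-6-phosphate was flowed in at 40 μM to 10 mM in HEPES/KCl/Mg(OAc)2 buffer. kcat and KM were taken from weighted Michaelis–Menten fits of kobs values from exponential decay fits.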

[2] = variants of: B1; assay: self-cleavage kobs at 160 uM GlcN6P; higher = faster cleavage; RNA array
In short: as §1

[3] = variants of: B1; assay: self-cleavage kobs at 10000 uM GlcN6P; higher = faster cleavage; RNA array
In short: as §1

[4] = variants of: B1; assay: self-cleavage kobs at 2500 uM GlcN6P; higher = faster cleavage; RNA array
In short: as §1

Variant	self-cleavage kobs at 640 uM GlcN6P [1]	self-cleavage kobs at 160 uM GlcN6P [2]	self-cleavage kobs at 10000 uM GlcN6P [3]	self-cleavage kobs at 2500 uM GlcN6P [4]
A14G A33U C34G	< 1e-05 s⁻¹	–	–	–
A14G C58G	7.22e-05 ± 2.1e-05 s⁻¹	4.95e-05 ± 1.8e-05 s⁻¹	–	–
A14G C58G G60U G63C	< 1e-05 s⁻¹	–	< 1e-05 s⁻¹	–
A14G G29A G32U	0.000272 ± 0.0001 s⁻¹	–	–	0.000568 ± 0.00014 s⁻¹
A14G G35A U47C C67A	< 1e-05 s⁻¹	< 1e-05 s⁻¹	–	–
A14G G38U G44U	< 1e-05 s⁻¹	–	–	–
A14G U30C G63U	< 1e-05 s⁻¹	< 1e-05 s⁻¹	< 1e-05 s⁻¹	–
A14G U30G G32A G44C C58U	< 1e-05 s⁻¹	–	–	< 1e-05 s⁻¹
A14G U31C U56A	0.00939 ± 0.0013 s⁻¹	0.0016 ± 0.00031 s⁻¹	–	0.0277 ± 0.0066 s⁻¹
A14G U69A C70A	5.74e-05 ± 2.2e-05 s⁻¹	–	–	–
A14U A15G G37A	0.000119 ± 2.8e-05 s⁻¹	–	–	–
A14U A36C A64U	< 1e-05 s⁻¹	< 1e-05 s⁻¹	< 1e-05 s⁻¹	–
A14U A36G G40A G41A U54A U57A C71U	< 1e-05 s⁻¹	–	–	–
A14U A36G U47A	< 1e-05 s⁻¹	–	–	< 1e-05 s⁻¹
A14U A42U A64C	< 1e-05 s⁻¹	–	–	< 1e-05 s⁻¹
A14U C34U G37C G51A U55C	< 1e-05 s⁻¹	–	–	–
A14U C50U G51U	< 1e-05 s⁻¹	< 1e-05 s⁻¹	< 1e-05 s⁻¹	< 1e-05 s⁻¹
A14U G26A A33G G59A	< 1e-05 s⁻¹	–	–	–
A14U G29A U49A U54G A64U	< 1e-05 s⁻¹	–	–	< 1e-05 s⁻¹
A14U G43C A48C U55G	< 1e-05 s⁻¹	< 1e-05 s⁻¹	–	< 1e-05 s⁻¹

Variant	self-cleavage kobs at 640 uM GlcN6P [1]	self-cleavage kobs at 160 uM GlcN6P [2]	self-cleavage kobs at 10000 uM GlcN6P [3]	self-cleavage kobs at 2500 uM GlcN6P [4]
A14U U30G G40C G41U C50G	< 1e-05 s⁻¹	–	–	< 1e-05 s⁻¹
A14U U46A	9.67e-05 ± 1.3e-05 s⁻¹	2.43e-05 ± 9.4e-06 s⁻¹	0.000323 ± 3.5e-05 s⁻¹	0.000343 ± 3.4e-05 s⁻¹
A14U U46C U49A	< 1e-05 s⁻¹	< 1e-05 s⁻¹	–	< 1e-05 s⁻¹
A15C A33C A36C	< 1e-05 s⁻¹	–	–	–
A15C A33U U56C C67A U69G	< 1e-05 s⁻¹	–	–	–
A15C C16U U17A A18C C19A A20G G21A A24U U31G G60U	< 1e-05 s⁻¹	–	–	–
A15C C16U U17A A18C C19A A36G G44U	< 1e-05 s⁻¹	–	–	–
A15C C50A U65C	< 1e-05 s⁻¹	–	–	–
A15C C67G	3.9e-05 ± 1.4e-05 s⁻¹	–	0.000114 ± 1.8e-05 s⁻¹	8.12e-05 ± 1.4e-05 s⁻¹
A15C G29U G41A A64U	< 1e-05 s⁻¹	–	–	–
A15C G35C C68A	< 1e-05 s⁻¹	–	–	–
A15C U31A C61G	< 1e-05 s⁻¹	–	–	–
A15G A36G U49A C70U	< 1e-05 s⁻¹	–	–	–
A15G A48U C70G	5.16e-05 ± 1.9e-05 s⁻¹	–	–	6.9e-05 ± 1.6e-05 s⁻¹
A15G A53C C68U	4.28e-05 ± 2e-05 s⁻¹	–	–	0.000114 ± 3.9e-05 s⁻¹
A15G C16A G38C G41A C67A	< 1e-05 s⁻¹	–	< 1e-05 s⁻¹	–
A15G C16A G60U	< 1e-05 s⁻¹	< 1e-05 s⁻¹	–	–
A15G C16G A42G C67G	0.000348 ± 6.7e-05 s⁻¹	7.28e-05 ± 3.4e-05 s⁻¹	0.000521 ± 0.00022 s⁻¹	0.000115 ± 3.5e-05 s⁻¹
A15G C34A A64C	< 1e-05 s⁻¹	–	–	–
A15G G35A G40A G44U C50U C68U	< 1e-05 s⁻¹	–	–	–

Variant	self-cleavage kobs at 640 uM GlcN6P [1]	self-cleavage kobs at 160 uM GlcN6P [2]	self-cleavage kobs at 10000 uM GlcN6P [3]	self-cleavage kobs at 2500 uM GlcN6P [4]
A15G G35U C50A C71A	< 1e-05 s⁻¹	–	–	–
A15G G38U	< 1e-05 s⁻¹	–	–	–
A15G G60C G63U	< 1e-05 s⁻¹	< 1e-05 s⁻¹	–	< 1e-05 s⁻¹
A15G U31A G35U C67G	< 1e-05 s⁻¹	< 1e-05 s⁻¹	–	< 1e-05 s⁻¹
A15G U31C G38C	< 1e-05 s⁻¹	–	–	–
A15G U49A C58A U69A C70U	0.00014 ± 3.9e-05 s⁻¹	–	–	–
A15U A33U U65A	< 1e-05 s⁻¹	< 1e-05 s⁻¹	–	–
A15U C16A A52U A53C	< 1e-05 s⁻¹	–	–	< 1e-05 s⁻¹
A15U C34A	< 1e-05 s⁻¹	< 1e-05 s⁻¹	< 1e-05 s⁻¹	< 1e-05 s⁻¹
A15U G35C A53U	< 1e-05 s⁻¹	–	–	< 1e-05 s⁻¹
A15U G38U G40C A52U C58U C61G	< 1e-05 s⁻¹	–	–	–
A15U G40U A48C	< 1e-05 s⁻¹	< 1e-05 s⁻¹	–	–
A15U U45C G66U C67G	7.69e-05 ± 2.9e-05 s⁻¹	–	–	0.000193 ± 5.8e-05 s⁻¹
A15U U57C A64U	< 1e-05 s⁻¹	–	–	–
A15U U65A	0.000146 ± 2.3e-05 s⁻¹	6.26e-05 ± 2.2e-05 s⁻¹	0.00039 ± 5.6e-05 s⁻¹	0.00021 ± 4.1e-05 s⁻¹
C16A A42C C67U	< 1e-05 s⁻¹	< 1e-05 s⁻¹	< 1e-05 s⁻¹	< 1e-05 s⁻¹
C16A A64C C67G U69G	< 1e-05 s⁻¹	–	–	–
C16A G40C A64C C67U	< 1e-05 s⁻¹	–	–	< 1e-05 s⁻¹
C16A G44A C58U	< 1e-05 s⁻¹	–	< 1e-05 s⁻¹	< 1e-05 s⁻¹

— the supplement of paper PMC7125110
